These results are taken from the supplement of paper PMC12217912.

B1: TEV protease; numbered along this chain (parent)
chain: MGESLFKGPRDYNPISSSICHLTNESDGHTTSLYGIGFGPFIITNKHLFRRNNGTLVVQSLHGVFKVKDTTTLQQHLVDGRDMIIIRMPKDFPPFPQKLKFREPQREERICLVTTNFQTKSMSSMVSDTSCTFPSGDGIFWKHWIQTKDGQCGSPLVSTRDGFIVGIHSASNFTNTNNYFTSVPKNFMELLTNQEAQQWVSGWRLNADSVLWGGHKVFMVKPEEPFQPVKEATQL

The variants in this test derive from B1. As to the kind of experiment: raw area under fraction-flipped curve 0-4 h after induction (AUC4h, not background-subtracted), DNA-recorder readout of cleavage of the substrate (dimensionless); higher = more cleavage of the substrate by the protease variant. The settings on record: temperature: 34 °C; time window: 0-4 h after rhamnose induction. Here is the method: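 In vivo DNA recorder in E. coli TOP10(DE3) ΔrhaA at 34 °C. Each TEVp single-site mutant (parent TEVp 0) is paired with a single-site variant of the 7-mer TEVs (canonical ENLYFQ|S). The substrate sits between flexible linkers in a Bxb1-sfGFP-TEVs-SsrA fusion, so cleavage stabilises Bxb1 and speeds flipping of a recombination array, read by NGS. The value is the raw area under the fraction-flipped curve over 0-4 h after rhamnose induction (AUC4h), with ≥20 reads per time point. It is not background-subtracted; inactive controls average about 0.047.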

Some of the results follow. Sequences were assembled here from the parent chain. Values near 0.05 are background.
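Further: Bxb1 expression induced with 0.2% (w/v) L-rhamnose at OD600 near 0.5, cultures sampled hourly, flipped fraction per protease–substrate barcode pair counted by paired-end Illumina sequencing.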

For MGESLFKGPRDYNPISSSICHLTNESDGHTTSLYGIGFGPFIITNKHLFRRNNGTLVVQSLHGVFKVKDTTTLQQHLVDGRDMIIIRMPKDFPPFPQKLKFREPQREERICLVTTNFQTKSMSSMVSDTSCTFPSGDGIFWKHWIQTKDGQCGSPLVSTRDGFIVGIHSASNHTNTNNYFTSVPKNFMELLTNQEAQQWVSGWRLNADSVLWGGHKVFMVKPEEPFQPVKEATQL [F173H], the “area with substrate ENLAFQS” value is 0.0412, the “area with substrate ENLCFQS” value came to 0.0678, the “area with substrate ENLDFQS” value was determined as 0.0682 and the “area with substrate ENLEFQS” value stood at 0.0503. Also, the “area with substrate ENLFFQS” value stood at 0.0715, the “area with substrate ENLGFQS” value turned out to be 0.0652, the “area with substrate ENLHFQS” value amounted to 0.072 and the “area with substrate ENLIFQS” value is 0.0665. Further, the “area with substrate ENLKFQS” value amounted to 0.0658, the “area with substrate ENLLFQS” value came out at 0.0626, the “area with substrate ENLMFQS” value came out at 0.0559 and the “area with substrate ENLNFQS” value turned out to be 0.0632. For the same variant, the “area with substrate ENLPFQS” value was determined as 0.0633, the “area with substrate ENLQFQS” value came out at 0.0722, the “area with substrate ENLRFQS” value turned out to be 0.0726 and the “area with substrate ENLSFQS” value stood at 0.0523. The “area with substrate ENLTFQS” value stood at 0.0627 and the “area with substrate ENLVFQS” value came to 0.0597.

Regarding MGESLFKGPRDYNPISSSICHLTNESDGHTTSLYGIGFGPFIITNKHLFRRNNGTLVVQSLHGVFKVKDTTTLQQHLVDGRDMIIIRMPKDFPPFPQKLKFREPQREERICLVTTNFQTKSMSSMVSDTSCTFPSGDGIFWKHWIQTKDGQCGSPLVSTRDGFIVGIHSASNFTNTNAYFTSVPKNFMELLTNQEAQQWVSGWRLNADSVLWGGHKVFMVKPEEPFQPVKEATQL [N178A], the “area with substrate ENLAFQS” value is 0.0542, the “area with substrate ENLCFQS” value turned out to be 0.0774, the “area with substrate ENLDFQS” value is 0.0605 and the “area with substrate ENLEFQS” value came to 0.0734. Moreover, the “area with substrate ENLHFQS” value is 0.0558, the “area with substrate ENLIFQS” value came to 0.0678, the “area with substrate ENLKFQS” value came out at 0.0789 and the “area with substrate ENLLFQS” value turned out to be 0.0379. Further, the “area with substrate ENLNFQS” value stood at 0.0588, the “area with substrate ENLPFQS” value came out at 0.0449 and the “area with substrate ENLSFQS” value turned out to be 0.0539.

For the variant MGESLFKGPRDYNPISSSICHLTNESDGHTTSLYGIGFGPFIITNKHLFRRNNGTLVVQSLHGVFKVKDTTTLQQHLVDGRDMIIIRMPKDFPPFPQKLKFREPQREERICLVTTNFQTKSMSSMVSDTSCTFPSGDGIFWKHWIQTKDGQCGSPLVSTRDGFIVGIHIASNFTNTNNYFTSVPKNFMELLTNQEAQQWVSGWRLNADSVLWGGHKVFMVKPEEPFQPVKEATQL [S169I], the “area with substrate ENLAFQS” value is 0.0589, the “area with substrate ENLCFQS” value was found to be 0.0637, the “area with substrate ENLDFQS” value is 0.0659 and the “area with substrate ENLEFQS” value was determined as 0.0778. Besides, the “area with substrate ENLFFQS” value amounted to 0.0545, the “area with substrate ENLHFQS” value was 0.0724, the “area with substrate ENLIFQS” value amounted to 0.0881 and the “area with substrate ENLKFQS” value turned out to be 0.0546. The “area with substrate ENLLFQS” value was found to be 0.0544, the “area with substrate ENLMFQS” value amounted to 0.0633, the “area with substrate ENLNFQS” value was 0.0609 and the “area with substrate ENLPFQS” value worked out at 0.0459. Moreover, the “area with substrate ENLQFQS” value was found to be 0.0508, the “area with substrate ENLRFQS” value came out at 0.059, the “area with substrate ENLSFQS” value came to 0.0532 and the “area with substrate ENLVFQS” value is 0.0628. In addition, the “area with substrate ENLWFQS” value stood at 0.0577.

In the case of MGESLFKGPRDYNPISSSICHLTNESDGHTTSLYGIGFGPFIITNKHLFRRNNGTLVVQSLHGVFKVKDTTTLQQHLVDGRDMIIIRMPKDFPPFPQKLKFREPQREERICLVTTNFQTKSMSSMVSDTSCTFPSGDGIFWKHWIQTKDGQCGSPLVSTRDGFIVGIHSASNFTNTNNYFTRVPKNFMELLTNQEAQQWVSGWRLNADSVLWGGHKVFMVKPEEPFQPVKEATQL [S182R], the “area with substrate ENLAFQS” value was 0.0456, the “area with substrate ENLDFQS” value is 0.0665, the “area with substrate ENLFFQS” value is 0.0505 and the “area with substrate ENLHFQS” value is 0.0508. Moreover, the “area with substrate ENLKFQS” value worked out at 0.068, the “area with substrate ENLNFQS” value stood at 0.0215, the “area with substrate ENLPFQS” value came out at 0.0559 and the “area with substrate ENLQFQS” value was 0.0476. Besides, the “area with substrate ENLVFQS” value turned out to be 0.0638 and the “area with substrate ENLWFQS” value is 0.0513.

For MGESLFKGPRDYNPISSSICHLTNESDGHTTSLYGIGFGPFIITNKHLFRRNNGTLVVQSLHGVFKVKDTTTLQQHLVDGRDMIIIRMPKDFPPFPQKLKFREPQREERICLVTTNFQTKSMSSMVSDTSCTFPSGDGIFWKHWIQTKDGQCGSPLVSTRDGFIVGIHSASNFTNTNNYFTSVPCNFMELLTNQEAQQWVSGWRLNADSVLWGGHKVFMVKPEEPFQPVKEATQL [K185C], the “area with substrate ENLAFQS” value was found to be 0.0851, the “area with substrate ENLCFQS” value was 0.0768, the “area with substrate ENLDFQS” value is 0.0641 and the “area with substrate ENLEFQS” value was 0.064. In addition, the “area with substrate ENLFFQS” value was 0.0716, the “area with substrate ENLGFQS” value was determined as 0.0742, the “area with substrate ENLHFQS” value is 0.0597 and the “area with substrate ENLKFQS” value worked out at 0.0636. Besides, the “area with substrate ENLLFQS” value came to 0.0748, the “area with substrate ENLNFQS” value turned out to be 0.0679, the “area with substrate ENLPFQS” value came out at 0.0787 and the “area with substrate ENLQFQS” value was 0.0709. Moreover, the “area with substrate ENLRFQS” value turned out to be 0.0676, the “area with substrate ENLSFQS” value was found to be 0.0733, the “area with substrate ENLVFQS” value was 0.0677 and the “area with substrate ENLWFQS” value is 0.0603.

With MGESLFKGPRDYNPISSSICHLTNESDGHTTSLYGIGFGPFIITNKHLFRRNNGTLVVQSLHGVFKVKDTTTLQQHLVDGRDMIIIRMPKDFPPFPQKLKFREPQREERICLVTTNFQTKSMSSMVSDTSCTFPSGDGIFWKHWIQTKDGQCGSPLVSTRDGFIVGIHSASNFTNTNNYFTSVPMNFMELLTNQEAQQWVSGWRLNADSVLWGGHKVFMVKPEEPFQPVKEATQL [K185M], the “area with substrate ENLAFQS” value came to 0.064, the “area with substrate ENLDFQS” value was found to be 0.0652, the “area with substrate ENLEFQS” value came to 0.0625 and the “area with substrate ENLHFQS” value was determined as 0.0657. Also, the “area with substrate ENLKFQS” value was 0.0773, the “area with substrate ENLLFQS” value is 0.0874, the “area with substrate ENLMFQS” value worked out at 0.0525 and the “area with substrate ENLNFQS” value was found to be 0.0574. The “area with substrate ENLPFQS” value was determined as 0.0492, the “area with substrate ENLRFQS” value was 0.0776, the “area with substrate ENLSFQS” value stood at 0.0748 and the “area with substrate ENLTFQS” value was found to be 0.0763. In addition, the “area with substrate ENLWFQS” value was found to be 0.077.

Regarding MGESLFKGPRDYNPISSSICHLTNESDGHTTSLYGIGFGPFIITNKHLFRRNNGTLVVQSLHGVFKVKDTTTLQQHLVDGRDMIIIRMPKDFPPFPQKLKFREPQREERICLVTTNFQTKSMSSMVSDTSCTFPSGDGIFWKHWIQTKDGQCGSPLVSTRDGFIVGIHSASNFTGTNNYFTSVPKNFMELLTNQEAQQWVSGWRLNADSVLWGGHKVFMVKPEEPFQPVKEATQL [N175G], the “area with substrate ENLAFQS” value was found to be 0.0611, the “area with substrate ENLDFQS” value worked out at 0.0625, the “area with substrate ENLEFQS” value stood at 0.0621 and the “area with substrate ENLFFQS” value was found to be 0.0933. Besides, the “area with substrate ENLHFQS” value stood at 0.0694, the “area with substrate ENLIFQS” value worked out at 0.0779, the “area with substrate ENLKFQS” value is 0.0481 and the “area with substrate ENLLFQS” value came out at 0.0958. Moreover, the “area with substrate ENLMFQS” value worked out at 0.0536, the “area with substrate ENLNFQS” value was 0.0896, the “area with substrate ENLQFQS” value came to 0.0733 and the “area with substrate ENLRFQS” value was determined as 0.0742. Besides, the “area with substrate ENLSFQS” value is 0.0715, the “area with substrate ENLVFQS” value was 0.067 and the “area with substrate ENLWFQS” value worked out at 0.051.

For MGESLFKGPRDYNPISSSICHLTNESDGHTTSLYGIGFGPFIITNKHLFRRNNGTLVVQSLHGVFKVKDTTTLQQHLVDGRDMIIIRMPKDFPPFPQKLKFREPQREERICLVTTNFQTKSMSSMVSDTSCTFPSGDGIFWKHWIQTKDGQCGSPLVSTRDGFIVGIHSAHNFTNTNNYFTSVPKNFMELLTNQEAQQWVSGWRLNADSVLWGGHKVFMVKPEEPFQPVKEATQL [S171H], the “area with substrate ENLAFQS” value was determined as 0.0587, the “area with substrate ENLDFQS” value stood at 0.0647, the “area with substrate ENLEFQS” value amounted to 0.0297 and the “area with substrate ENLFFQS” value worked out at 0.0793. In addition, the “area with substrate ENLGFQS” value worked out at 0.0665, the “area with substrate ENLHFQS” value was determined as 0.0521, the “area with substrate ENLIFQS” value was 0.0601 and the “area with substrate ENLKFQS” value came to 0.0705. Besides, the “area with substrate ENLMFQS” value worked out at 0.0661, the “area with substrate ENLNFQS” value was 0.0734, the “area with substrate ENLPFQS” value was found to be 0.0635 and the “area with substrate ENLSFQS” value worked out at 0.065. For the same variant, the “area with substrate ENLTFQS” value came to 0.0621 and the “area with substrate ENLVFQS” value was 0.0767.
